Measurements: the supplement of paper PMC3334620
Over roughly 33,000 sequences, “E-score (-0.5 to 0.5)” has its median near -0.054; the highest 2% begin near 0.39. The list shows a part of the results.

What follows are sequences tested against Ylr278c (UniProt Q05854) (assay: PBM E-score (8-mer binding enrichment) (E-score (-0.5 to 0.5)); higher = stronger / more preferred TF binding; most listed sequences are background and not binding sites). Conditions: protein concentration: 200 nM; construct: GST-DNA-binding domain.
Summary of the method: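 Each ungapped eight-base word and its reverse complement, pooled, received an E-score from the Universal PBM Analysis Suite. Underlying scans, normalised with masliner, recorded fluorescent anti-GST bound to GST-tagged yeast transcription factors. These were applied at about 100-200 nM to universal all-10-mer Agilent arrays double-stranded by primer extension.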

Sequence | PBM E-score
GCCTAGGA | -0.153
CAATTGAG | 0.0878
CTGCTTGC | -0.0607
ACACCCCG | 0.241
CAGAATGA | -0.164
GAAATGAA | 0.166
AACCATTG | -0.211
ATCCTTGC | -0.0916
CCAAAGCA | -0.107
AATTACCC | 0.141
CCAGAACC | -0.164
CCCTAGCA | -0.13
GCTCTGCC | -0.124
CGACGAAG | 0.116
CTATAGAC | -0.167
GTGTAGAA | -0.226
AGCTTGGG | -0.0608
GGTTTGCA | 0.125
ACTACCTA | -0.00777
CATTGAGA | -0.119
GGATTCCC | 0.185
GGGTTAAC | 0.176
AGCAAACA | 0.00793
CAGCGTCA | -0.128
CCAGGTCA | -0.253

Sequence | PBM E-score
TGGCTCAA | -0.253
AATCTGAT | 0.0142
CCTCTTAC | -0.169
CGTTCAAA | 0.0453
CATTGCGA | -0.0217
AGTTCCTG | -0.0874
GTGGTGAA | -0.0967
TGCAACCA | -0.255
CCTGGACA | -0.154
CCTAGTAC | -0.172
CTGCACCA | -0.159
CCAGGCAA | -0.071
CTTTTGTA | 0.00311
AGCGAGAC | -0.119
CTCATGCC | -0.176
ACGACGGG | 0.014
CAGTAACC | 0.00497
GGTTATCA | -0.127
CTTCTGGC | -0.299
AACTTTGT | -0.0105
ATTCCCCA | -0.0758
CACGGGCA | 0.0224
ATCACTTC | -0.0556
CCCTTAAC | -0.258
AGACCCTC | -0.0526

Sequence | PBM E-score
CGTGGAAG | 0.0308
CGCCTTAA | -0.119
GGGGGACA | -0.203
CATTCACG | 0.0541
GGTGTGGA | -0.0575
GGACCTAA | 0.226
CGCCGTGA | 0.172
CACGGGGC | 0.152
AGAGGTCA | -0.0798
ATATAATA | -0.0463
GGGTAACA | -0.155
CACGCGTC | 0.143
CGCCATGC | 0.0273
AAGGGGGG | -0.394
ACTAGGGC | -0.239
CGCCGCCG | 0.362
ATCCAAAG | -0.177
CACAGCGC | 0.0802
GTCCTAAC | -0.0824
CAATCGTA | -0.163
CGGTCTAG | 0.0736
GGAGGGCA | 0.00619
AAAATACG | -0.0445
CAATTTCA | -0.137
ATGGATGC | -0.0459

Sequence | PBM E-score
CAGTACTG | -0.261
ATTAACCG | 0.322
GACTCTAC | -0.144
TACTGGAA | -0.0153
AAGTTAGG | -0.0863
AGTGTCAG | -0.219
ACTCCATC | 0.275
ACTCGTCA | -0.208
CTTAGGGA | -0.248
ACGTGCAT | -0.261
CTAGCACA | -0.191
TTCGACAA | -0.188
ACTTCCCC | 0.00708
CCCCAACG | -0.00611
CGAGTAAC | -0.04
GGACCCTA | -0.0466
GCTGCGGA | 0.314
GTGTATCA | -0.039
CAGCACAC | -0.238
ACAACAAG | -0.207
ACCAGTTA | -0.149
CGCTGTCA | -0.118
AATCCTCG | -0.144
AGTGTCTC | -0.076
CCGTTTAA | 0.18

Sequence | PBM E-score
GATGTTGC | 0.162
ACAGACTC | -0.109
GCTGCCAA | -0.105
CACCCACG | 0.0222
ATATGGCA | -0.242
CACACAGG | -0.192
GTGTGTGA | -0.0812
GAATGGTA | -0.221
ATGGCAAC | -0.0198
AAATCGTA | -0.133
GTTCTTCA | -0.192
CACTGCAC | -0.211
AGTTCTTG | -0.115
CGGAATAA | 0.433
ATGGTAAA | -0.0675
AAGATCGT | -0.168
CTTTTTAC | 0.00387
CAGGGTCG | 0.0987
CTCTTTTA | -0.327
AAAGATCC | 0.0866
AGGTTCCG | 0.289
TGCACAAA | -0.266
AGCCATAC | -0.407
CCCGGATC | 0.403
CAATCTGA | -0.0967

Sequence | PBM E-score
CAGCTCAC | -0.16
CTTTGTCC | 0.197
ACCAACAG | -0.174
ACCCCGCC | 0.375
CCCGCCCA | 0.243
AACCTGGT | 0.0412
ACTAGCCT | -0.0654
ACCAGGAA | -0.0449
ACACCCCT | -0.227
AGTGGCGC | 0.024
GCGTACCA | -0.188
GGCAGACC | -0.0495
AGGGTGTG | -0.0826
GAGTCGGC | 0.196
CGTCAGAA | -0.25
CTCTTTCA | -0.101
ACCTTCGT | -0.119
AAATGCTT | 0.0244
AATCCGCC | 0.319
CCGATCGG | 0.43
CTCCATGC | -0.0754
ACGTTAGT | -0.171
CCCCTTCA | -0.187
TCAGCACA | -0.175
ACGGATGA | 0.0479

Sequence | PBM E-score
ATCCAGAT | -0.146
GTTCGGAA | 0.403
GGCTAGGA | -0.334
CAGATCCG | 0.368
AAATAGCC | -0.00231
CACAACTG | -0.273
GGCAGCAC | -0.15
CTTGGAAC | -0.146
GGTCCGGA | 0.446
CGATGTTC | 0.0923
CTATACAA | -0.155
TAATAATA | -0.0581
ATTGGTGC | 0.162
GCGGCGCA | 0.204
GAACAAGA | 0.0112
GTTCTGAA | -0.223
CGGAGCGC | 0.391
TAGGCTCA | -0.191
CAGCACCA | -0.214
CGGTCTAA | -0.0115
CGGGCGTA | 0.178
TCTTGACA | -0.154
